Source: publication PMC4336329 (PLoS ONE, 2015)
In all, about 310,000 compounds went through this assay and about 14,000 (4.5%) showed an effect of 50% or more. Effects have a minus sign here. The list shows a part of the results.

Target: human ether-à-go-go-related gene (hERG) potassium channel (human, UniProt Q12809)
Test: primary screen, population patch clamp on CHO cells stably expressing hERG
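Note: peak tail current of the secondary pulse compared with the same well before compound.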

Chain of human ether-à-go-go-related gene (hERG) potassium channel (Q12809 whole entry, looked up): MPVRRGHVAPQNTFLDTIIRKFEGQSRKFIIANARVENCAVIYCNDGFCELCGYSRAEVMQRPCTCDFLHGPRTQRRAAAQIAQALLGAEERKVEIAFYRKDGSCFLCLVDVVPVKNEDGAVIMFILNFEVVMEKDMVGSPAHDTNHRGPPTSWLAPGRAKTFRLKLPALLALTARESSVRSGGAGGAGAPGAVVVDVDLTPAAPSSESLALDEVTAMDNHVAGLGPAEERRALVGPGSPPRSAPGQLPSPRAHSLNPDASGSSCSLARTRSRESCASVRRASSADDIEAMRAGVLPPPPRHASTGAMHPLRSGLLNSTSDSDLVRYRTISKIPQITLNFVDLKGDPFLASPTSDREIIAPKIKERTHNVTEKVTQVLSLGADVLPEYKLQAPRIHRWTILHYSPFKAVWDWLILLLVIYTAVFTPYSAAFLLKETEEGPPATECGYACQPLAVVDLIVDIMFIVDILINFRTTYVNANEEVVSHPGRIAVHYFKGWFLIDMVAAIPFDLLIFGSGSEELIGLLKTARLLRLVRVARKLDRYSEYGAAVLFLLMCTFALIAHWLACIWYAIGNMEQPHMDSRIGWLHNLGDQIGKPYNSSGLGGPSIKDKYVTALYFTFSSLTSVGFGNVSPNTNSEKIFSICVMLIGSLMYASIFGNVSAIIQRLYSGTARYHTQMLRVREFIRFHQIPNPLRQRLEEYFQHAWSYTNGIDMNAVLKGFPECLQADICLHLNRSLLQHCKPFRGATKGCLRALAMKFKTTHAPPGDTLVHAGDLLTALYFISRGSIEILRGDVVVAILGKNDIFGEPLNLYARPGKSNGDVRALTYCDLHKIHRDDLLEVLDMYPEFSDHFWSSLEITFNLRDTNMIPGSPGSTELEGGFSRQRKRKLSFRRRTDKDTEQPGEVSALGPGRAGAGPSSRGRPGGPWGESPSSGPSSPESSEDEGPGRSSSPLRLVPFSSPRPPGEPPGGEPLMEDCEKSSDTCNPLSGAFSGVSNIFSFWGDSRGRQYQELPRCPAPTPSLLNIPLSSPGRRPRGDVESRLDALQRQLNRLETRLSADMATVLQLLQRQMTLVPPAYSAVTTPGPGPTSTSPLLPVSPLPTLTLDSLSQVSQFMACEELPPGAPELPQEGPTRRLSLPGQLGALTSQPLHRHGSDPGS

Row | Structure (SMILES) | hERG current change (%, negative = inhibition) at 10uM
1 | Cc1[nH]c(=O)[nH]c(=O)c1S(=O)(=O)N1CCC(C(=O)NC(C)c2ccccc2)CC1 (stereo not drawn) | 7.02%
2 | Cc1nc(CSc2ccc(Cl)cc2)cs1 | 13.9%
3 | Cc1cccc(N2C(=O)c3cccc4c(N(C)CCO)ccc(c34)C2=O)c1 | -16.1%
4 | CCc1nc(SCc2ccccc2C#N)n[nH]1 | 13.4%
5 | Cn1nnnc1SCC(=O)N(C1CCCCC1)C1CCCCC1 | 2.23%
6 | C=C(C)Cn1c(=O)c2c(nc3n2CCN3c2cccc(Cl)c2C)n(C)c1=O | -3.63%
7 | O=C(NCCc1ccco1)C(=O)NCC1OCCCN1S(=O)(=O)c1ccc(Cl)cc1 (stereo not drawn) | -0.416%
8 | CNc1ccccc1C(=O)OC(C)C(=O)Nc1ccc(S(=O)(=O)N2CCCC2)cc1 (stereo not drawn) | 12.4%
9 | CCOCc1nnc(NC(=O)c2ccc(OC)cc2)s1 | 7.73%
10 | COC(=O)C1Cc2ccccc2CN1C(=O)CCl (stereo not drawn) | 3.84%
11 | CCCCCN=C(N)N/N=C/c1c[nH]c2ccc(OC)cc12.O=C(O)/C=C\C(=O)O | -37.9%
12 | CNC(=O)CSc1nnc(C2CC2)n1-c1ccccc1 | 11.8%
13 | O=C1c2ccccc2C(=O)N1c1ccccc1S(=O)C(F)(F)F (stereo not drawn) | -4.51%
14 | Cl.O=C(Nc1ccc(Br)cn1)c1ccc(Br)s1 | 20.2%
15 | COc1cccc(C(=O)NC2CCN(CC(=O)NCc3ccccc3F)CC2)c1 | -5.7%
16 | Cc1n[nH]c(=S)n1/N=C/c1cccc(OCc2ccccc2)c1 | 22.3%
17 | O=C(COC(=O)c1cccc(S(=O)(=O)N2CCOCC2)c1)c1ccccc1 | 10.8%
18 | O=C(Oc1ccccc1C(=S)N1CCOCC1)c1cccc([N+](=O)[O-])c1 | 9.29%
19 | CCOc1ccc(C)cc1S(=O)(=O)n1ccnc1 | 6.45%
20 | CN(C(=O)COC(=O)c1cc(S(=O)(=O)N(C)C)ccc1Cl)C1CCS(=O)(=O)C1 (stereo not drawn) | 2.56%
21 | Cc1ccc(NC(=O)CN2CCC(NC(=O)Cc3ccccc3)CC2)c(C)c1 | -10.9%
22 | CCNc1nc(Oc2ccc(=O)n(-c3ccccc3)n2)nc(N2CCOCC2)n1 | -4.53%
23 | Cc1ccc(-n2c(SCC(=O)Nc3ccc(C(=O)O)cc3)nnc2-c2ccncc2)cc1 | 9.02%

Row | Structure (SMILES) | hERG current change (%, negative = inhibition) at 10uM
24 | NC(=O)C1CCCN(C(=S)Nc2ccccc2)C1 (stereo not drawn) | 8.77%
25 | O=C1Nc2ccc(Br)cc2/C1=C/C1CC=CCC1 (stereo not drawn) | -1.66%
26 | Cc1ccc(NC(=O)CN(C)C(=O)Cc2ccc(Cl)cc2Cl)cc1 | 12.4%
27 | O=C(NCC1CCCO1)c1ccccc1S(=O)(=O)c1ccc([N+](=O)[O-])cc1 (stereo not drawn) | 9.43%
28 | COc1ccc(-c2csc(NC(=O)CSC(C)C(=O)Nc3cc(C)on3)n2)cc1OC (stereo not drawn) | -6.18%
29 | Cc1cc(C)c(NC(=O)Cn2ncc3ccccc32)c(C)c1 | 15.2%
30 | Cn1cnc([N+](=O)[O-])c1Nc1cccc(O)c1 | 9.93%
31 | O=C(O)Cc1cn(-c2ccccc2)nc1-c1ccc(Cl)cc1 | 10.7%
32 | Cc1ccc2cccc(OC(=O)N(C)c3ccccc3)c2n1 | 5.2%
33 | COc1cc(OC)cc(C(=O)NC(=S)NNC(=O)c2cnccn2)c1 | 6.54%
34 | CCn1nc(C)cc1-c1nnc(SCC(=O)Nc2ccccc2)n1CCCOC | 16.2%
35 | COc1ccc(N(C(=O)c2ccco2)S(=O)(=O)c2ccc(F)cc2)cc1 | -27.3%
36 | COCCNC(=O)/C(C#N)=C\c1ccc(CNS(=O)(=O)c2ccccc2)o1 | 25%
37 | CCn1cc(C(=O)N2CCN(c3cccc(C)c3C)CC2)c(=O)c2ccc(C)nc21 | -12.9%
38 | COc1ccc(S(=O)(=O)N2CCCCCC2)cc1N(C)S(=O)(=O)c1ccc(C)cc1 | -39.7%
39 | O=C(Nc1cccc(-c2cn3ccccc3n2)c1)c1cnccn1 | 2.16%
40 | O=C(NCCO)c1cc2c([nH]c3ccccc32)c(-c2ccccc2)n1 | -3.19%
41 | Cc1ccc2[nH]c(=O)c(C3C(C#N)=C(N)Oc4c3ccc3cccnc43)cc2c1 (stereo not drawn) | -11.8%
42 | Cc1cccc(Oc2ccccc2NC(=O)C2=COCCO2)c1 | -18.4%
43 | O=C(Nc1ccccc1)O[C@@H]1C[C@H]2CCC(=O)N3CC[C@@H](C1)[C@@H]23 | 1.87%
44 | S=c1[nH]nc(COc2ccccc2)n1/N=C/c1ccc(Br)s1 | -18.8%
45 | CC(=O)c1ccc(Oc2cc(C(F)(F)F)cnc2C(N)=O)cc1 | 13%
